# According to publication PMC12040169 (PLOS Biology, 2025):
# The other results are listed elsewhere or left out.
# System: T1, C. trachomatis L2/434/Bu expressing GFP (CTL2-GFP)
# T1 construct: L2/434/Bu GFP intracellular growth in HeLa cells
# Parameters: species or system HeLa; C. trachomatis total inclusion area by high-content imaging, normalised to DMSO
# Conditions: total inclusion area; 28.5 h, 10 µM; inhibitor
# In short: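 High-content images of fixed, Hoechst-stained infected cultures supply inclusion area and count (growth) plus nuclei number (viability), complementing bulk GFP/resorufin fluorescence. MIC determination is unchanged from the primary assay.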
row,SMILES,% of control remaining
1,CCC1c2cccn2CCN1Cc1cncn1CC (stereo not shown) [CBK283012],79.3365
2,CCN(CC)C(=O)CC1SC(NCC2CCCCC2)=NC1=O (stereo not shown) [CBK067923],72.113
3,COc1ccc(C(C)C)cc1-c1cnc2nc(NS(C)(=O)=O)ccc2c1 [CBK085672],96.1358
4,c1ccc(CCn2nnnc2CN2CCN(c3ccccc3)CC2)cc1 [CBK069271],80.6436
5,O=C(c1ccco1)c1coc2ccc(O)cc12 [CBK115570],108.842
6,Oc1cccc(-c2cc(CC3(NCc4ccc(F)cc4)COC3)no2)c1 [CBK289646],106.239
7,Nc1ccccc1Sc1ncccc1C(F)(F)F [CBK093758],111.474
8,c1c2c(cc3sc(N4CCCCC4)nc13)OCCO2 [CBK287497],82.5692
9,Nc1nonc1-n1nnc(C(=O)N/N=C/c2ccc([N+](=O)[O-])cc2)c1-c1ccccc1 [CBK261992],96.8751
10,CC(NC(=O)c1c(Cl)c(Cl)c(Cl)c(Cl)c1C(=O)O)c1cccs1 (stereo not shown) [CBK264722],105.369
11,CC(C)(CNC(=O)Cn1cc(C(=O)NC2CCCCC2)ccc1=O)c1ccccc1F [CBK286099],94.1008
12,CNc1snc(N2CCOCC2)c1C#N [CBK011453],92.1488
13,Cc1nn(C)c(C)c1CCC(=O)N1CCc2ncc(Cl)cc2C1 [CBK284851],94.5164
14,O=S(=O)(NC(c1c[nH]c2ccccc12)C(Cl)(Cl)Cl)c1ccccc1 (stereo not shown) [CBK263279],76.8476
15,Cc1c(NC(=O)CSCc2ccc(Cl)cc2Cl)cccc1C(=O)O [CBK131704],112.703
16,CC(CC(=O)NCC1(C)COC1)n1cnc2ccccc21 (stereo not shown) [CBK281755],105.836
17,CC1(C)CC(=O)C2=C(C1)Nc1nn(-c3ccccc3)c(O)c1C2c1cccs1 (stereo not shown) [CBK266333],126.056
18,O=C(Cc1ccc(Cl)c(Cl)c1)N1CCN(c2ncccn2)CC1 [CBK144497],104.911
19,COC(=O)CCCNS(=O)(=O)c1ccc([N+](=O)[O-])cc1 [CBK261172],73.9493
20,CCOC(=O)c1sc2nc(C(C)N3CCOCC3)[nH]c(=O)c2c1C (stereo not shown) [CBK305862],62.7283
21,COc1cc(Nc2cncc(-c3ccc(O)cc3)n2)c(Cl)cc1C(=O)NCC1CCCO1 (stereo not shown) [CBK126468],68.3223
22,CN(C)c1cccc(Nc2ccc(/C=C/c3ccccc3)cn2)c1 [CBK036984],64.186
23,O=C(NC(=O)N1CCC2(C1)NCCc1c2[nH]c2ccccc12)c1ccccc1 (stereo not shown) [CBK046985],102.102
24,c1ccc2sc(SCCN3CCCCC3)nc2c1 [CBK016366],113.489
25,Cc1c(C(=O)NC(C)c2ccncc2)oc2c(F)cccc12 (stereo not shown) [CBK282105],75.5139
26,CCOC(=O)C1CCCN(C(=O)Cn2cnc(-c3cccs3)cc2=O)C1 (stereo not shown) [CBK304210],101.572

row,SMILES,% of control remaining
1,CCCC/C=C/c1cn2ccnc2c(NCCc2cccnc2)n1 [CBK066235],123.569
2,O=c1cc(-c2ccccc2)nc(SCc2nc(-c3cccs3)no2)[nH]1 [CBK268416],78.4274
3,CC(=O)[C@H]1C[C@@H](CC(=O)NCc2csc(-c3ccccc3)n2)C1(C)C [CBK092335],93.6189
4,CNC(=O)C1CCN(S(=O)(=O)c2ccc(C(C)(C)C)cc2)CC1 [CBK051544],59.299
5,CC(=O)N1CC2(CCCC2)c2c(F)cccc21 [CBK306339],71.5407
6,CC(=O)Nc1ccc(C(=O)CSc2nnc(C)o2)cc1 [CBK267851],91.1802
7,O=C1CC(c2nc(-c3ccncc3)no2)CN1c1ccc2c(c1)OCO2 (stereo not shown) [CBK288583],111.876
8,O=C(Nc1cccnc1)c1cnc2cc(Cl)ccc2c1O [CBK107353],107.588
9,O=C(NCCO)c1ccc(CSc2nc3sc4c(c3c(=O)[nH]2)CCCC4)cc1 [CBK263522],97.9692
10,Nc1ccccc1Sc1cc(C(F)(F)F)ccn1 [CBK093761],104.38
11,Cc1c(NC(=O)c2ccc([N+](=O)[O-])o2)cccc1-c1nc2ccccc2s1 [CBK263051],80.8099
12,COc1ccccc1CC(=O)N1[C@H](Cc2ccccc2)C[C@@H]2NCCCCC[C@H]21 [CBK285978],107.532
13,COc1cc(-c2nc(N)cc3cccnc23)cc(OC)c1OC [CBK061892],81.0368
14,CSc1ccc(-c2cn3ccnc3c(NCCc3ccncc3)n2)cc1 [CBK066479],100.857
15,COc1nc(NCCN2CCOCC2)nc(Nc2ccccc2)n1 [CBK027298],108.037
16,CN(C)CCN1CCN(c2ccc(-c3ccc(OC(F)(F)F)cc3)cn2)CC1 [CBK036796],92.9159
17,COC(=O)c1c(NC(=O)COc2ccccc2Cl)sc2c1CCC(c1ccccc1)C2 (stereo not shown) [CBK265456],104.481
18,Fc1ccc(-c2nccnc2NCc2ccncc2)cc1 [CBK088964],109.913
19,COc1ccc(OC)c(C(O)CN2CCc3sccc3C2c2cccs2)c1 (stereo not shown) [CBK285532],76.325
20,COc1ccc(CCC(=O)N2CCCc3c(cnn3C)C2)cc1 [CBK285326],87.5543
21,CC(C)CC(Nc1ncnc2c1oc1ccccc12)C(=O)O (stereo not shown) [CBK293974],103.573
22,O=C(Nc1cccc(OC(=O)c2cccc(S(=O)(=O)N3CCOCC3)c2)c1)c1ccccc1 [CBK261365],109.547
23,Cc1noc(C)c1C(=O)N1CCC(c2ccncc2)CC1 [CBK282334],76.5716
24,CC1(C)Cc2nc(N3CCOCC3)ncc2C(NC(=O)NC(C)(C)C)C1 (stereo not shown) [CBK306978],82.7144
25,COc1ccc([C@@H]2CN(C)C[C@H]2NC(=O)Nc2ccc(Cl)c(Cl)c2)cc1OC [CBK081111],6.886
26,CC[C@@H]1CCCCN1C(=O)c1ccc(Cl)c(C)c1 [CBK084565],72.123
